From publication PMC11243198, “Identification of Novel GANT61 Analogs with Activity in Hedgehog Functional Assays and GLI1-Dependent Cancer Cells” (Molecules, 2024)
pIC50: −log10 of the molar value.

How the values were obtained:
[1] = test system: Hh pathway in C3H10T1/2 cells; assay: C3H10T1/2 Hedgehog-responsive cell-based assay, alkaline phosphatase (AP) fluorescence readout; set-up: species or system murine; details: Mus musculus, C3H 10T1/2, 120 h, SAG 30 nM, 5 days; for IC50: fluorescence AP readout, read-out: C3H10T1/2 (Flu AP, IC50 μM); for pIC50: repurchased compounds, read-out: IC50, C3H10T1/2 Flu AP, retest with SAG (Figure S3)
[2] = test system: Hh pathway in C3H10T1/2 cells; assay: C3H10T1/2 AP fluorescence assay with purmorphamine (PUR) as pathway activator; format: cell-based, murine; details: Mus musculus, C3H 10T1/2, 120 h; PUR 500 nM, 5 days, repurchased compounds; read-out: C3H10T1/2 (PUR; Flu AP, IC50 μM)

IC50 [1] [µM]	pIC50 [1]	IC50 [2] [µM]	SMILES
5.5	5.19	6.5	c1cc(CNc2ccc(N3CCCC3)cc2)ccn1 [BAS 07019774, pyridin-4-ylmethyl-(4-pyrrolidin-1-yl-phenyl)-amine]
1.1	–	8.1	N#Cc1ccc(C(=O)Nc2ccccc2C(=O)NC2CC2)cc1 [Compound Z27610715]
10.5	5.55	2.5	CN(C)c1ccccc1CN1CCCN(Cc2ccccc2N(C)C)C1c1ccncc1 [GANT61]
